# Reference: the supplement of paper PMC11417369
# ± gives the standard deviation of the averaged measurements. This is one part of the list.
# Tested on: PfAP2-G AP2 domain (GST-tagged)
# Assay: gcPBM binding intensity (ln(normalized median fluorescence intensity)); higher = stronger DNA binding
# How it was run: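 Binding intensity is defined as the maximum Masliner-normalised natural-log median intensity across replicate spots for either probe orientation. It was measured on an Agilent 4 × 180k array of primer-extended double-stranded 36-bp intergenic genomic probes and negative controls, to which GST-tagged P. falciparum DNA-binding domains made in E. coli were applied for 1 h in 1× PBS with 1% milk, 0.2 mg/ml BSA, 0.5% salmon testes DNA and 0.03% Triton X-100. Detection was by Alexa488 anti-GST antibody and scanning at 488 nm.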
row,Sequence,gcPBM binding intensity (ln)
1,AAATTATTGAAATACGCATGTGTTTTTTTTTTTTTT [TGCATGCA_site391],10.1 ± 0.12
2,AATATTACGTCTGGACGTACAAATCTTTTTCGTGTC [XGTACX_site6644],11.5 ± 0.68
3,CATATTAGGACAAAGTGTACATATATATATATATAT [XGTACX_site1172],11.4 ± 0.86
4,ACATTCAATCTACTGTGTACATATTAAACTTTGAAA [XGTACX_site2913],11.4 ± 0.75
5,TATTATATTTATTTATGTACACATATACTTAAATAA [XGTACX_site1355],11.4 ± 1
6,TGTAATACAGAAAAAAGTACTAAAAAGAAAAGGATT [XGTACX_site3176],11.3 ± 0.61
7,ACACCTATAAATTAAGTGCATTTTTTTTGATGTTAT,9.78 ± 0.2
8,TTTTTTTTTTTAATATGTACGTAAAATAAGTTTAAA [XGTACX_site6495],11.4 ± 0.95
9,TACATCTGTATATAAACACACAACAAAAATGCTTAC [CACACA_site3814],9.95 ± 0.11
10,AAATTAAATCCGCACGCACACACACCGATTAATAAA [CACACA_site9321],10.5 ± 0.43
11,AATATATAAATAGATACACACATACATACATACATA [CACACA_site4301],10.1 ± 0.13
12,AAAAAATATATATCACGTGGTAATATATATATATAT [XGTACX_negctrl_site252],10.13 ± 0.099
13,ATATATATACAACAAGCATGCAGTAATTTTTTTTTT [TGCATGCA_site728],9.505 ± 0.078
14,CTATAATAACATAACACACACATGTATTTATAGGTG [CACACA_site6298],10.3 ± 0.11
15,TCCTTATAAAAATACACACAAACTTTAATTAAAACA [CACACA_site3730],9.99 ± 0.2
16,TAATCAACAAAATCTACACACTAAAATGAAATATAA [CACACA_site3749],9.94 ± 0.028
17,AAATAAAAAGTAAAGCGTACAAATGATCAAATAATA [XGTACX_site7898],11.3 ± 0.9
18,AGGCGTGAAATATACGTACACACATTATTTATATTT [CACACA_site2558],11.6 ± 1
19,TATAAATAGATATATACACACTTGTGCAGAATATTA [CACACA_site7112],9.84 ± 0.071
20,AGAAGTGTAAAAGTTACACACACAAACTTGTCATTT [CACACA_site4613],9.955 ± 0.007
21,CCCAGGTGCTCGTAACGTACTTACATCAAATATTAT [XGTACX_site4617],11.2 ± 0.73
22,TAACATTACTCTTAACTCTTTTGGATACCAACTTAT [XGTACX_negctrl_site82],10.3 ± 0.29

row,Sequence,gcPBM binding intensity (ln)
1,AAATATTTATAAATTGCACACAAATAATAACATTAT [CACACA_site8737],9.925 ± 0.064
2,ATAATAATATATACATGTACATATATATATATATAT [XGTACX_site3455],11 ± 0.52
3,AAGAAAAAAAAAATTACACACTGCGCACATACACAA [CACACA_site6721],10.39 ± 0.099
4,AGTAACTAATTAAATGCATGTCGATATATATTATAT [TGCATGCA_site1038],10.1 ± 0.23
5,GTGTATATGTATATATGTACATAAATTTTTTTTTTT [XGTACX_site7083],11.1 ± 0.62
6,ACTTATATAAAACATTAACACACAAAGAAAAAAAAT [CACACA_site8529],10.2 ± 0.33
7,GATACACCAAATAACTGTACGCACGTGTAATATTAA [XGTACX_site3441],11.6 ± 0.83
8,CATGTTCATCAGAACGCACACATAATGGTTTACTTA [CACACA_site898],10.24 ± 0.028
9,TATATATATATATATACACACATATATACCTATATA [CACACA_site6085],10 ± 0.28
10,AAAAAAAAGTTAAGCACACACATGAATAAATAATAC [CACACA_site840],10.2 ± 0.15
11,TTAACCGGTTTATGGGTGCACATTCTTCTTAAATAA [GTGCAC_site9928],10.5 ± 0.34
12,CCTAGAAAAGTATATACACACGCGCAAAATAAAATT [CACACA_site1413],10.4 ± 0.28
13,CATTTAACATAAATTAAACACACAATATAATACATT [CACACA_site8333],9.995 ± 0.007
14,AAAGATAAAATATTATGTACATATATATATATATAT [XGTACX_site5079],11.1 ± 0.56
15,TGTATAAAAGTTTATACACACATTTGATATATTTCA [CACACA_site6606],9.79 ± 0.014
16,TATAAAAAAAACAAAAAAAAAAAAAAACAAAAAAAA [TGCATGCA_negctrl_site514],9.76 ± 0.12
17,TTTTTTTGTTGTTGTTGTACGATATTTTCCTTATCA [XGTACX_site2375],11.3 ± 0.77
18,GGGAATATAAGTACACGATAATATGTGATAAGGTCT [CACACA_negctrl_site1502],11.5 ± 1
19,TTTTATTTTTATTATACACACGCTTAATAAATGCAT [CACACA_site1751],10.03 ± 0.064
20,ATTAAATACATTAACACACACACAAATATATACATA [CACACA_site2881],10.1 ± 0.19
21,AATAATAATACTAATCGTACGCATATTTTTCAAACC [XGTACX_site8055],11.3 ± 0.76
22,TTTATAAAAATGAACACACACATATAAATATAAATA [CACACA_site7607],10.1 ± 0.16
